Several values for one entry are separate records, joined by “and”; a condition that tells them apart may be missing. Identical values can stand only once. Among all 420,000 compounds or so, about 64,000 (15%) were called active. Inconclusive results, whose numbers are uncertain, are shown with a selection of clear calls. The call rests on the fitted dose curve; in most records, active means well fitted inhibition curve with a large enough effect; inconclusive means small, poorly fitted or top-dose-only effect; inactive means flat fitted curve, though single readings scatter. A potency beside an inconclusive call is a rough fit, not a confirmed value.
Experiment: qHTS for Inhibitors of human tyrosyl-DNA phosphodiesterase 1 (TDP1): qHTS in cells in absence of CPT; further: nearly all actives have a fitted effect of over 55% in size
Settings: DT40 Tdp1-/- hTDP1 cells, no CPT, ATP luminescence, 48 h; activity change, negative = growth inhibition: at 46.2 µM (top of the series)
Outline: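 DT40 Tdp1-/-;hTDP1 cells, no CPT (DMSO vehicle only), 400 cells/well; compounds pin-transferred; ≥48 hr, 37 °C; CellTiter-Glo 30 min RT dark, luminescence read.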
On the % scale 0 is the no-effect control and ±100 the full control effect; potency means the concentration at half of the fitted maximal effect; tags describe the fitted curve by direction and shape.

| Structure (SMILES) | Potency | activity change, negative = growth inhibition |
| --- | --- | --- |
| O=C(CSc1nc2ccccc2c(=O)n1-c1ccc(F)cc1)Nc1cc(S(=O)(=O)N2CCOCC2)ccc1Cl | inconclusive: 7.31 µM [inhibitor, partial curve] |  |
| CC(C)=CCCC1=CCC(/C=N/NC(N)=O)C(C)C1 (stereo not given) | inconclusive: 29.1 µM [inhibitor, single point] |  |
| COc1ccc(NS(=O)(=O)c2ccc3c(c2)NC(=O)CC(=O)N3)cc1OC |  | inactive: 1.67% |
| CCOC(=O)C1=C(C)NC(C)=C(C(=O)OCC)C1c1cn(-c2ccccc2)nc1-c1ccco1 | inconclusive: 29.1 µM [inhibitor, single point] |  |
| CC(C)OC(=O)C(C(=O)OC(C)C)=C1SC=CS1 | inconclusive: 29.9 µM [inhibitor, single point] |  |
| Cc1cccc(C(=Cc2ccc([N+](=O)[O-])cc2)C(=O)O)c1 | inconclusive: 25.9 µM [inhibitor, single point] |  |
| O=C(NCc1ccccc1)C(c1ccc(-c2ccccc2)cc1)N1CCN(C(=O)C2CCCO2)CC1 (stereo not given) | inconclusive: 29.1 µM [inhibitor, single point] |  |
| COc1ccc(-c2csc(C(O)c3ccc(F)cc3)n2)cc1 (stereo not given) | inconclusive: 29.1 µM [inhibitor, single point] |  |
| CCCCCCCNC(=O)c1cc(-c2ccncc2)nc2ccccc12 | inconclusive: 29.1 µM [inhibitor, single point] |  |
| CCC1(c2ccccc2)NC(=O)N(CC(=O)NCc2ccc(C)cc2)C1=O (stereo not given) |  | inactive: -19.5% |
| COc1ccc2o/c(=N\O)c(C(=O)Nc3ccccc3OC)cc2c1 | active: 5.8 µM |  |
| N#Cc1c(N2CCCCC2)nc(N2CCCCC2)c2c1CCN(Cc1ccccc1)C2 | inconclusive: 29.1 µM [inhibitor, single point] |  |
| Cc1ccc(OCc2cc(C(=O)N(C)CCc3ccccn3)no2)cn1 |  | inactive: -25.2% |
| CC(C)Sc1nc2c(c(=O)[nH]1)C(c1cccs1)C1=C(CC(C)(C)CC1=O)N2 (stereo not given) | inconclusive: 18.4 µM [inhibitor, single point] |  |
| CCOCCCNC(=O)c1ccc(-n2c(-c3ccccc3)cc3c2CCCCC3)cc1 | inconclusive: 25.9 µM [inhibitor, single point] |  |
| CN(C)CCN(Cc1ccco1)C(=O)c1oc2ccccc2c1NC(=O)c1cccc(F)c1 | inconclusive: 29.1 µM [inhibitor, single point] |  |
| N#C/C(=C\c1c(N2CCCCC2)nc2ccccn2c1=O)C(=O)NCc1ccco1 | inconclusive: 29.1 µM [inhibitor, single point] |  |
| CC(C)(C)c1ccc(C(=O)NCc2nnc(SCC(=O)NC3CCCCC3)o2)cc1 | active: 20.6 µM |  |
| COc1ccc(C(=O)/C=C/c2cn(CC(O)CN3CCOCC3)c3ccccc23)cc1 (stereo not given) | inconclusive: 29.1 µM [inhibitor, single point] |  |
| Cc1cccc2c(N)c3c(nc12)N(C)CC3 | active: 11.6 µM |  |
| CCCCCc1cc(OC)cc2c1C(=O)OC(C)(C)O2 | inconclusive: 18.4 µM [inhibitor, single point] |  |
| CSc1nc(N)nc(SCCS(=O)(=O)c2ccc(Cl)cc2)c1C#N | active: 25.9 µM |  |

| Structure (SMILES) | Potency | activity change, negative = growth inhibition |
| --- | --- | --- |
| Cc1cc(C(=O)CSc2nnc(-c3ccc(F)cc3)o2)c(C)n1CC1COc2ccccc2O1 (stereo not given) | inconclusive: 25.9 µM [inhibitor, single point] |  |
| O=C(NCCc1c[nH]c2ccccc12)C(=O)NCC1OCCCN1S(=O)(=O)c1cccs1 (stereo not given) | inconclusive: 20.6 µM [inhibitor, single point] |  |
| COc1ccc(CC(=O)NCCS(=O)(=O)N2CCN(c3ccc(F)cc3)CC2)cc1OC | inconclusive: 23.1 µM [inhibitor, single point] and inconclusive: 18.4 µM [inhibitor, partial curve] |  |
| N=c1c(S(=O)(=O)c2ccc(Cl)cc2)cc2c(=O)n3ccccc3nc2n1C1CCCCC1 | inconclusive: 23.1 µM [inhibitor, single point] |  |
| COc1cccc2c1C1(O)C2CCCCCCCCCC12OCCCO2 (stereo not given) | inconclusive: 9.2 µM [inhibitor, partial curve] |  |
| Cc1oc(-c2cc3c(cc2Cl)OCO3)nc1CN1CCCC(C(=O)N2CCOCC2)C1 (stereo not given) | inconclusive: 23.1 µM [inhibitor, partial curve, poor fit] |  |
| O=C(CSc1nc(=O)[nH]c2c1CCCC2)NCc1ccc(F)cc1 | inconclusive: 29.1 µM [inhibitor, single point] |  |
| O=C(CSc1ncnc2c1cnn2-c1ccccc1)NCC1CCCO1 (stereo not given) | inconclusive: 18.4 µM [inhibitor, single point] |  |
| COc1ccccc1NC(=O)c1sc2nc3c(cc2c1N)CN(Cc1ccccc1)CC3 | inconclusive: 29.1 µM [inhibitor, single point] |  |
| COc1ccccc1N(C(=O)c1snc(C(N)=O)c1N)C(C(=O)NC1CCCC1)c1ccco1 (stereo not given) |  | inactive: -16.7% |
| Cc1ccc(Cc2c(C3CCCCC3)nc3c(C)cc(Br)cn23)cc1 |  | inactive: -18.1% |
| CCNC(=O)c1c(NC(=O)c2nc(S(=O)(=O)CC)ncc2Cl)sc2c1CCCC2 | active: 0.731 µM |  |
| COc1ccc(NC(=O)c2cc(C3CCCCN3S(=O)(=O)c3ccc(F)cc3F)on2)c(C)c1 (stereo not given) | active: 14.6 µM |  |
| O=C(O)c1cc(-c2ccc(-c3c(-c4ccc5c(c4)OCO5)noc3-c3ccsc3)cc2)nc2ccccc12 | inconclusive: 28.2 µM [inhibitor, partial curve, poor fit] and inconclusive: 16.4 µM [inhibitor, single point] |  |
| O=c1c2ccccc2cnn1-c1ccc(Cl)cc1 |  | inactive: -3.21% |
| CCC(C)NC(=O)C1c2cc(OC)c(OC)cc2C(=O)N(C)C1c1ccc(OC)cc1 (stereo not given) |  | inactive: -13.8% |
| OCCOCCn1c(CCNc2nc(-c3ccc(Cl)cc3)cs2)nc2cc(Cl)c(Cl)cc21 | inconclusive: 16.4 µM [inhibitor, single point] |  |
| COc1ccc(CCN2C(=O)/C(=C\c3ccco3)SC2=S)cc1OC | inconclusive: 18.4 µM [inhibitor, single point] |  |
| O=C(Nc1ccccc1)c1ccc(S(=O)(=O)NCc2cccnc2)cc1 | inconclusive: 0.259 µM [inhibitor, full curve, poor fit] |  |
| O=C(c1cccnc1)N1CCN(Cc2ccc3ccccc3c2)CC1 | inconclusive: 32.6 µM [inhibitor, partial curve, poor fit] |  |
| CCN=C1S/C(=C\c2ccc(N3CCOCC3)cc2C)C(=O)N1CC | active: 2.31 µM |  |
| COc1ccc(/C=N/NC(=O)c2ccc(NC(=O)c3cccc([N+](=O)[O-])c3)cc2)c(C(=O)O)c1OC |  | inactive: -20.3% |

| Structure (SMILES) | Potency | activity change, negative = growth inhibition |
| --- | --- | --- |
| Nc1ccc(OCC(O)C[n+]2ccc(CCS(=O)(=O)[O-])cc2)cc1 (stereo not given) |  | inactive: -3.67% |
| Cc1ccc(-n2cc(C(=O)c3cc(Cl)ccc3O)cc(C#N)c2=O)cc1 | active: 23.1 µM |  |
| CCOc1cccc(C(=O)Nc2cc(C)ccc2NC(=O)c2ccco2)c1 |  | inactive: 15.3% |
| CCOC(=O)C(=CNc1ccc(OC)cc1[N+](=O)[O-])C(=O)OCC | active: 11.6 µM |  |
| Cc1ccc(C(=O)N/C(=C/c2cccs2)C(=O)NCCc2c[nH]c3ccccc23)cc1 | inconclusive: 25.9 µM [inhibitor, single point] |  |
| CN(c1ccccc1)S(=O)(=O)c1cccc(NC(=O)CSc2ncc(C(F)(F)F)cc2Cl)c1 | inconclusive: 6.51 µM [inhibitor, single point] |  |
| O=C(CSc1nnc(-c2ccccc2)c(-c2ccccc2)n1)Nc1ccc(Br)cn1 | inconclusive: 20.6 µM [inhibitor, partial curve, poor fit] |  |
| Cc1cccc(CC(=O)NCc2nc3cccnc3n2Cc2ccc(F)cc2)c1 | inconclusive: 25.9 µM [inhibitor, single point] |  |
| CCc1cc(=O)[nH]c(SCc2nc(-c3ccccc3)no2)n1 | inconclusive: 23.1 µM [inhibitor, single point] |  |
| COc1ccc(-n2c(C)cc(/C=C3\C(=N)N4N=C(CC(=O)N5CCOCC5)SC4=NC3=O)c2C)c(OC)c1 | inconclusive: 25.9 µM [inhibitor, single point] |  |
| CC1(C)CC(=O)C2=C(C1)Nc1ccccc1NC2c1ccc(F)cc1 (stereo not given) |  | inconclusive: -30.4% [inhibitor] |
| Cc1ccc(SC2=C(N(C)C)C(=O)c3ccccc3C2=O)cc1 | active: 5.17 µM |  |
| COc1cc2ccccc2cc1C(=O)Nc1ccc(CN2CCOCC2)cc1 | inconclusive: 29.1 µM [inhibitor, single point] |  |
| CCOC(=O)c1ccc(NC(=O)Cn2ncc(Cl)c(Cl)c2=O)cc1 | active: 2.31 µM |  |
| O=C(O)CC1S/C(=N/N=C/c2ccc(-c3ccc(Cl)cc3[N+](=O)[O-])o2)NC1=O (stereo not given) | inconclusive: 18.4 µM [inhibitor, single point] |  |
| CCOC(=O)C1CCCN(C(=O)CN2C(=O)COc3ccc(C(C)(C)C)cc32)C1 (stereo not given) |  | inconclusive: -34.3% [inhibitor] |
| CCc1nc2c(OCc3ccc(F)cc3)cccn2c1N(C)C(=O)c1ccco1 | inconclusive: 29.1 µM [inhibitor, single point] |  |
| Cc1ccccc1Nc1c(-c2ccccc2)nc2cccc(C)n12 | active: 3.16 µM |  |
| Fc1ccc2nc(Nc3nc4cc5c(cc4s3)OCCO5)sc2c1 | inconclusive: 29.1 µM [inhibitor, single point] |  |
| CCOC(=O)N1CCN(C(=O)Cn2nc(C)n3nc(-c4ccc(OC)cc4)cc3c2=O)CC1 | inconclusive: 9.2 µM [inhibitor, partial curve] |  |
| CS(=O)(=O)Nc1ccccc1C(=O)OCc1cc(=O)n2nc(C3CCCCC3)sc2n1 | inconclusive: 23.1 µM [inhibitor, single point] |  |
